# Reference: the supplement of paper PMC11417369
# The other results are listed elsewhere or left out.
# Test system: PfHDP1 homeodomain (GST-tagged)
# Experiment: gcPBM binding intensity (ln(normalized median fluorescence intensity)); higher = stronger DNA binding
# Outline: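 Binding intensity is the highest Masliner-normalised natural-log median intensity over replicate spots in either probe orientation. To obtain it, GST-tagged P. falciparum DNA-binding domains made in E. coli were incubated for 1 h on an Agilent 4 × 180k array of primer-extended double-stranded 36-bp intergenic genomic probes plus negative controls. Detection used Alexa488 anti-GST antibody with scanning at 488 nm.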
row,Sequence,gcPBM binding intensity (ln)
1,TCATATATATTGAAATGTACTTATTTTTTCCTCATA [XGTACX_site6526],6.31
2,AAAAAAAAAATTATATATATATCCCTTATTTTTTCT [TGCATGCA_negctrl_site151],6.67
3,AAAAAAAAGAATTAGGCACACAATTTTAATATAGGA [CACACA_site1522],6.12
4,ACTACGAATGGTAGAGTGCAGTCTGGAGAAGAGTAC [GTGCAC_site9685],7.19
5,GCATACATCAAGCACACACACACACGCACACGCACA [CACACA_site6311],7.18
6,TTATGGATGGACAATAATAAAATTTTTACTTTTATT [CACACA_negctrl_site908],6.44
7,TTATGTTTCATAAAAAATTAATCAAACATATATAAG [CACACA_negctrl_site666],5.96
8,GTGAAGTTCAAAATATGTACTTATGTATGTATTTTT [XGTACX_site165],5.94
9,TAAATATAACAGAATAATATGTGGATTAATAAATGA [CACACA_negctrl_site438],6.41
10,AAAAAAAAAAAAAAAACACACATGTATACTAGAATA [CACACA_site7108],6.78
11,TTAAGTTACAATTCTCGTACACATTAAAAGAAAATT [XGTACX_site699],6.33
12,ATATAATATGTTGAATGTACTTAAAAAAATGTATCT [XGTACX_site5385],6.33
13,TATAAGAAATAAAACCTGATTATAAACCTGTAACCA [CACACA_negctrl_site1302],6.23
14,TTACAAATGTAGAAAAGTACATATAATAATAATTTA [XGTACX_site3044],6.3
15,ATTTGTATAATAAGTTGTACAATTCTTACAATATAA [XGTACX_site4164],6.45
16,GGTAGAAAATCAGTTAAACACACACCGAAAAAAAAA [CACACA_site8934],6.56
17,AAAAAAAAAAAAAGCACACACACATATGCGTATATA [CACACA_site953],6.43
18,TTTAAGCGTTCACTGCTGCACTTTTATGTTGTGACC,6.36
19,ATGGATAATAATAAGTGTACACATATATTTAGAAGA [XGTACX_site244],7.06

row,Sequence,gcPBM binding intensity (ln)
1,TCCTATTTTATATAATGTACATAAATATATTACATA [XGTACX_site2720],6.45
2,AAGAGCAACCAAATAGAAAAAGGAAAATAAAAGGAA [CACACA_negctrl_site100],6.61
3,TTTGTTCAATTTACATGTACAGATATAATCTAACAT [XGTACX_site370],6.21
4,ATTTTTATTTTATATACACACAATAATAATATAATA [CACACA_site4015],6.74
5,TCTATTAAAACAAATTGTACTTATTGATAAAGAATA [XGTACX_site3645],6.31
6,AAGGCAAACAGACACACACACATATATACCTATATA [CACACA_site7077],6.64
7,GTTGCCATCATTTGGCGTACAGTCAAAACCAAATCT [XGTACX_site1398],6.07
8,GTTATACACATTACATGTACAAAAGTTGCACTTCAT [XGTACX_site6023],9.57
9,GTTATAAATAAATATACACACATATATAAAATACAT [CACACA_site7146],6.6
10,AAATTTTTTTTTTAATTTTTTATTTAAAAAAAATAT [TGCATGCA_negctrl_site174],5.89
11,TATAACATAAAACACACACACATACATACACAAAAA [CACACA_site1804],7.15
12,CGCTTTATTTATATATGTACATATATATATATATAC [XGTACX_site5012],6.85
13,TAAAATAACTCACAAAGTACAAAAATAAGCATATGA [XGTACX_site7046],6.87
14,TACATGATAGATCACACACACATATAAATATATATA [CACACA_site5562],6.6
15,ACATAAGACACAAATACACACAAAAATATATAACAA [CACACA_site4082],6.9
16,TATGCATTTATGCATTGTACTTTTATAGATTCCACC [XGTACX_site7121],6.22
17,AACAATATGGATGTATGTACACATATAGAACGTTAT [XGTACX_site7142],6.88
18,ATGAACGGAAAAATATATATAAATATATATATCATG [XGTACX_negctrl_site342],6.18
19,TATGTATATATATTAACACACAAAAAAAAAAAAAAA [CACACA_site1812],6.2

row,Sequence,gcPBM binding intensity (ln)
1,TTAAACTATACCAAAACACACATACAAAATATAAAA [CACACA_site5494],6.87
2,GAAATTTTATTACTTTTACACACCTATATATTATTC [CACACA_site9076],6.58
3,ATATTATATATACACGCACACACACTAATATATATA [CACACA_site9092],7.77
4,TACAAAAAAAAAGAACGTACAAAAAATTTCAAAAAT [XGTACX_site5860],6.37
5,GGTATACTCAAGTATACACACATATATATATATATA [CACACA_site5746],9.47
6,AAAATATATTAAGGCACACACATACAGATATATATA [CACACA_site5951],7.03
7,TACGTGAAATTATATACACACATAAATATGGGTGTA [CACACA_site5687],6.57
8,TACATACACAAATACACACACAAATACATACCCAAA [CACACA_site4550],7.29
9,TTTTTTCTTTTTTTTTTTTTTTTCTTTTTTTTTTTT [GTGCAC_negctrl_site196],5.96
10,AAGAAAATGTATATATGTACATACAATCAAAAGAAG [XGTACX_site3454],7.24
11,AAATATATATTCATGTGTACACACAAAAAAAAATAA [XGTACX_site4552],7.82
12,AAAAATTTTCAAGTGTGTACATATTTTCATTTAACA [XGTACX_site6186],6.43
13,TAATAAAAAATTAAAAAAAATAAAAATAAAAATAAA [GTGCAC_negctrl_site78],6.38
14,CATACATATACTTTGTGTACATATATATATTATATA [XGTACX_site97],6.8
15,ATGTATATATTTTTATGTACATATTTTTAATTTATA [XGTACX_site2982],5.72
16,TTTTTATTTAGCTAAGCATGCTAACGATGACACTTC [TGCATGCA_site79],6.46
17,TTTATACTTTTAAATTGTACTATAAAAAGGAATACA [XGTACX_site2537],6.35
18,AAGAAAAAGTATCCTCTATCTTTATATAAACTATTA [TGCATGCA_negctrl_site2],5.95
